# Reference: PubChem BioAssay AID886 (National Center for Advancing Translational Sciences (NCATS), 2007)
# “And” between values parts separate entries of the source, which are not always exact repeats. Equal entries are not always repeated. In all, about 73,000 compounds went through this assay and about 2,500 (3.4%) were called active. This list was built around the results that the source calls inconclusive (neither active nor inactive); the mix of calls is not that of the screen. The call rests on the fitted dose curve; in most records, active means well fitted inhibition curve with a large enough effect; inconclusive means small, poorly fitted or top-dose-only effect; inactive means no such curve, though single readings can be large or run the other way. A potency beside an inconclusive call is a rough fit, not a confirmed value.
# Target: 3-hydroxyacyl-CoA dehydrogenase type-2 (Homo sapiens) (UniProt Q99714)
# Test: qHTS Assay for Inhibitors of HADH2 (Hydroxyacyl-Coenzyme A Dehydrogenase, Type II); further: nearly all actives have a fitted effect of over 60% in size
# Settings: recombinant HADH2, NADH fluorescence, beta-hydroxybutyryl-CoA; activity change, negative = inhibition: at 57.1 µM (top of the series)
# Outline: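 Activity measured as NADH fluorescence gain (360/450 nm), taken as the change between first and last reads of a 4-min kinetic run. Conditions: pH 9.0 Tris buffer, 20 nM E. coli-expressed His-tagged enzyme, 1 mM NAD+, 90 uM beta-hydroxybutyryl-CoA; 15-min compound preincubation.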
# On the % scale 0 is the no-effect control and ±100 the full control effect; potency means the concentration at half of the fitted maximal effect; tags describe the fitted curve by direction and shape.
# Chain of UniProt Q99714 (Q99714 whole entry, looked up): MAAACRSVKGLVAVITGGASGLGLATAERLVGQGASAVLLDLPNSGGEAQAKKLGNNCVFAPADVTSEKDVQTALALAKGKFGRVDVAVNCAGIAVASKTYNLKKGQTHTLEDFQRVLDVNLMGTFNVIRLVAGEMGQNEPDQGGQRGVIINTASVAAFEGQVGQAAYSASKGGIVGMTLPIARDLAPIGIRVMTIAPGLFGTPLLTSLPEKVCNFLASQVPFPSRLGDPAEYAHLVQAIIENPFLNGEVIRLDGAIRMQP
# Chain of UniProt Q99714 (Q99714 whole entry, looked up): as above
Compound,"activity change, negative = inhibition",Potency
CC(C)c1ccc2c(c1)CC[C@H]1[C@@](C)(CN)CCC[C@@]21C,inactive: 12.9% [at 11.4 µM],–
O=C(CCN1C(=O)c2ccccc2C1=O)Nc1ccc(-c2nc3ccccc3o2)cc1,–,inactive
O=c1c2c(nc3nc(CCc4ccccc4)[nH]n13)CCC2,–,inactive
O=C(c1ccco1)N1CCC2(CCCN(c3ccccc3)C2)CC1,–,inactive
Cc1ccnc(SCC(=O)N2CCN(c3cccc(Cl)c3)CC2)n1,–,"inconclusive: 31.6 µM [inhibitor, single point]"
CCN(CC)CCCn1c(-c2ccccc2)nc2c(NCCOC)nc(C)nc21,–,"inconclusive: 39.8 µM [inhibitor, single point]"
COc1ccc(-c2cc(C(F)(F)F)nc(S(C)(=O)=O)n2)cc1OC,–,"inconclusive: 12.6 µM [inhibitor, partial curve]"
CSC1CCCCC1(O)CSc1nc2c(cc1C#N)CCCC2 (stereo not drawn),–,"inconclusive: 31.6 µM [inhibitor, single point]"
CCN(CC)c1ccc(C(=O)Nc2cccc(F)c2)cc1,–,"inconclusive: 39.8 µM [inhibitor, single point]"
c1ccc2c(c1)ncc1cccn12,–,active: 25.1 µM
CCOC(=O)C(C)Oc1cccc2c(=O)n(CC(=O)NCc3ccc4c(c3)OCO4)ccc12 (stereo not drawn),–,"inconclusive: 31.6 µM [inhibitor, single point]"
Cc1ccccc1OCc1nnc2c3cnn(C)c3ncn12,–,inactive
O=C(c1ccc(Cn2cc(Br)cn2)o1)n1cccn1,–,"inconclusive: 3.98 µM [inhibitor, single point]"
CN(C)c1ccc(-c2cc(N(C)Cc3ccco3)ncn2)cc1,–,active: 31.6 µM
O=C(NC1=NCCS1)c1csc2ccccc12,–,"inconclusive: 25.1 µM [inhibitor, partial curve]"
Cc1ccc2c(c1)NC(=O)C(CC(=O)NCc1cccnc1)O2 (stereo not drawn),–,"inconclusive: 20 µM [inhibitor, partial curve]"
CC(=O)c1c(C)oc(C)c1CSCc1ccc(C(=O)O)o1,–,"inconclusive: 25.1 µM [inhibitor, partial curve]"
Cc1cc2nc3c(c(=O)n2[nH]1)CCCC3,–,"inconclusive: 31.6 µM [inhibitor, single point]"
CCN1CCCC1CNC(=O)c1ccc(N2CCCC2=O)cc1 (stereo not drawn),–,"inconclusive: 31.6 µM [inhibitor, single point]"
Cc1ccc(NS(=O)(=O)c2cccc(C(=O)n3ncc(C#N)c3N)c2)c(C)c1,–,"inconclusive: 12.6 µM [inhibitor, partial curve]"
CN(C)c1ccc(/C=[N+](\[O-])C(C)(C)/C=N/O)cc1,–,"inconclusive: 3.16 µM [inhibitor, single point]"
Nc1c(S(=O)(=O)c2cccs2)c2nc3ccccc3nc2n1/N=C/c1cccc(O)c1,–,"inconclusive: 39.8 µM [inhibitor, single point]"
Cc1cccc2cc3c(nc12)SC(=NCC1CCCO1)N(Cc1ccco1)C3 (stereo not drawn),–,active: 10 µM
Cc1cc(C)c2c(=O)n(CC(=O)N3CCC(Cc4ccccc4)CC3)sc2n1,–,active: 0.199 µM

Compound,"activity change, negative = inhibition",Potency
CC1CCC/C(=C\Nc2ccccc2C(=O)O)C1=O (stereo not drawn),–,"inconclusive: 39.8 µM [inhibitor, single point]"
Cc1cc(C)n(-c2ncc(-c3ccccc3)nn2)n1,–,"inconclusive: 39.8 µM [inhibitor, single point]"
CCOC(=O)c1c(Nc2nc(C)c(C(=O)NC)s2)sc(C)c1C,–,"inconclusive: 39.8 µM [inhibitor, single point]"
Oc1cnc2ccccc2c1CN1CCOCC1,–,"inconclusive: 31.6 µM [inhibitor, single point]"
COC(=O)C(C)Sc1ccc2nnc(-c3cccc(F)c3)n2n1 (stereo not drawn),–,active: 12.6 µM
Cc1ccc(S(=O)(=O)OCC2CN3C(CCC(C)C3c3ccc(Br)cc3)C(=O)O2)cc1 (stereo not drawn),inactive: 10.9% [at 11.4 µM] and inactive: 6.72% [at 11.4 µM] and inactive: 9.21% [at 11.4 µM],–
O=C(Cc1cccs1)Nc1ccc(S(=O)(=O)N2CCCCC2)cc1,–,"inconclusive: 25.1 µM [inhibitor, single point]"
CCc1c(C)c2ccc(O)c(CN(C)C)c2oc1=O,–,active: 2 µM
CCN1CCCC1Cn1c(-c2ccccc2)nc2c(NCCOC)nc(C)nc21 (stereo not drawn),–,"inconclusive: 25.1 µM [inhibitor, single point]"
O=C(NCC(F)(F)F)Nc1ncccn1,–,inactive
CCCCCCC#CC1C=CC(OC(C)=O)C(COC(C)=O)O1 (stereo not drawn),–,"inconclusive: 6.31 µM [inhibitor, single point]"
COc1ccc(OC)c(CCNC(=O)Cn2sc3nc(C)cc(C)c3c2=O)c1,–,active: 0.251 µM
CCCc1[nH]nc2c1C(c1cc(OC)cc(OC)c1)C(C#N)=C(N)O2 (stereo not drawn),–,inactive
CCn1cnc2c1c(=O)n(Cc1csc(-c3ccccc3)n1)c(=O)n2Cc1ccccc1,–,"inconclusive: 39.8 µM [inhibitor, single point]"
COc1cccc(CNc2nc3nc(C)c(Cl)c(C)n3n2)c1,–,"inconclusive: 39.8 µM [inhibitor, single point]"
CC1(C)Cc2nc3sc4c(=O)[nH]cnc4c3cc2CS1,–,inactive
CCOC(=O)c1c(-c2cccs2)csc1NC(=O)c1ccco1,–,inactive
CCCC(=O)N=C1SC2CS(=O)(=O)CC2N1c1ccc(CC)cc1 (stereo not drawn),–,inactive
COc1cc(NC(=O)c2cnn3c(C)cc(C)nc23)c(OC)cc1Cl,–,"inconclusive: 31.6 µM [inhibitor, partial curve]"
COn1c(C)c(C(C)=O)c2c3nonc3ccc21,–,"inconclusive: 20 µM [inhibitor, single point]"
CCOC(=O)c1ccccc1NC1OC(=O)c2ccccc21 (stereo not drawn),–,"inconclusive: 31.6 µM [inhibitor, single point]"
O=C(Nc1cnc2ccccc2c1)N1CCCCC1,–,"inconclusive: 31.6 µM [inhibitor, single point]"
COc1ccc(CNC(=O)C2CCNCC2)cc1,–,inactive
CCn1c(Cc2ccc(OC)cc2)nnc1SCC(=O)Nc1cccc(C(=O)OC)c1,–,active: 25.1 µM
